Results from patent publication US4149007A, “C14 Phenyl-substituted derivatives of prostaglandin analogues” (Miles Laboratories, Inc., priority 1977, dated 1979).
At least one structure is not confirmed: it was looked up by name or label, or the drawing left a doubt.

Key:
Format in all cases: cell-based
guinea pig trachea = test: Effects on the guinea pig trachea in vitro; conditions: 0.01-10.0 mcg/ml, relative to PGE1 0.1 mcg/ml
Description: (C) effect on the guinea pig trachea in vitro;
A male guinea pig weighing 200-500 g was killed by a blow on the head. A 20 mm length of the trachea was dissected from the animal, transferred to a petri dish containing Krebs' solution (aerated with 95% O2 and 5% CO2 at 37° C.), and cut longitudinally opposite the tracheal muscle. The tissue was then cut transversely three quarters of the distance across, a second cut in the opposite direction (again three quarters of the distance across the tissue) was made and the procedure was continued for the whole tissue. The ends of the trachea were pulled to form a zig-zig shaped strip. The tracheal strip used in the experiment was approximately 30 mm when extended under 0.25-0.5 g load in the tissue bath. Cotton thread was tied to one end of the tissue, and linen thread to the other. It was attached via the linen thread to a glass hook in a 5 ml isolated tissue bath containing Krebs' solution (37° C., aerated with a mixture of 95% O2 and 5% CO2). […]
A test compound was then added to the same two strips at bath concentrations of 0.01, 0.1, 1.0, and 10.0 mcg/ml and the effects of the compound were recorded. […] The mean of the effects of the test compound on the two strips was then calculated for each concentration, and, based on the resulting values, an activity value was assigned as follows: […]

guinea pig ileum [1] = test: Antagonism of the effects of PGE1 on the guinea pig ileum in vitro; conditions: PGE1 0.1 mcg/ml; test compound 0.1 and 1.0 mcg/ml
Description: (§1) The degree and specificity of antagonism of test compounds to the smooth muscle stimulant effects of prostaglandins were assessed in segments of terminal guinea pig ileum. Preparations were placed in tissue chambers filled with Ringer-Tyrode solution at 37° C., bubbled with a mixture of 95% O2 and 5% CO2, and arranged for isometric recording with force displacement transducers. The segments were stretched to an initial tension of 1 g, and responses to a test concentration of acetylcholine (0.1 mcg/ml) were obtained every 5 minutes until two similar responses were observed (usually after four administrations). […] Any direct contractile effect of the test compound was recorded and evaluated in terms of mean values in grams of tension developed at each concentration. Responses to the different agonists observed after incubation with the test compound were expressed as percent of control responses. All drugs were administered in a volume of 0.1 ml.
(§2) Antagonism to prostaglandins was scored independently for PGE1 and PGF2α according to the following criteria: […]

guinea pig ileum [2] = test: Antagonism of the effects of PGF2α on the guinea pig ileum in vitro; conditions: PGF2α 1 mcg/ml; test compound 0.1 and 1.0 mcg/ml
Description: as §1, §2

| SMILES | Guinea Pig Trachea: activity value (guinea pig trachea) | Antagonism PGE: activity value (guinea pig ileum [1]) | Antagonism PGF: activity value (guinea pig ileum [2]) |
| --- | --- | --- | --- |
| CCCCC[C@@H](O)/C(=C/C1C=CC(=O)C1CCCCCCC(=O)O)c1ccccc1 (stereo partly drawn) [Example 12, 14-Phenyl-15R-hydroxy-9-oxo-ent-prosta-10,13E-dien-1-oic acid] | 0 | 0 (Less than 50% blockade of PG response) | 0 (Less than 50% blockade of PG response) |
| COC(=O)CCCc1ccccc1CC1C(=O)CCC1/C=C(\c1ccccc1)[C@H](C)O (stereo partly drawn) [Example 4, Methyl 5,6,17,18,19,20-hexanor-4,7,-inter-o-phenylene-14-phenyl-15S-hydroxy-9-oxo-ent-prost-13E-en-1-oate] | 0 | 0 (Less than 50% blockade of PG response) | 0 (Less than 50% blockade of PG response) |
